Reference: publication PMC3042207
Several values for one entry are separate records, joined by “and”; a condition that tells them apart may be missing. Equal values may be shown once.

Substrate: CC1=C(/C=C/C(C)=C/C=C/C(C)=C/C(=O)Nc2ccc(O)cc2)C(C)(C)CCC1
Assay: Metabolism of 4-HPR by CYP3A4 supersomes
Type: in vitro ADME, human
Details: other: CYP3A4 supersomes; 4-HPR 0-20 µM, 3 h; 37.0 °C

B1: CYP3A4 (Homo sapiens) (protein)
chain: MALIPDLAMETWLLLAVSLVLLYLYGTHSHGLFKKLGIPGPTPLPFLGNILSYHKGFCMFDMECHKKYGKVWGFYDGQQPVLAITDPDMIKTVLVKECYSVFTNRRPFGPVGFMKSAISIAEDEEWKRLRSLLSPTFTSGKLKEMVPIIAQYGDVLVRNLRREAETGKPVTLKDVFGAYSMDVITSTSFGVNIDSLNNPQDPFVENTKKLLRFDFLDPFFLSITVFPFLIPILEVLNICVFPREVTNFLRKSVKRMKESRLEDTQKHRVDFLQLMIDSQNSKETESHKALSDLELVAQSIIFIFAGYETTSSVLSFIMYELATHPDVQQKLQEEIDAVLPNKAPPTYDTVLQMEYLDMVVNETLRLFPIAMRLERVCKKDVEINGMFIPKGVVVMIPSYALHRDPKYWTEPEKFLPERFSKKNKDNIDPYIYTPFGSGPRNCIGMRFALMNMKLALIRVLQNFSFKPCKETQIPLKLSLGGLLQPEKPVVLKVESRDGTVSGA
- Km: 2.8 ± 1.1 µM and 4.8 ± 1.2 µM
